This passage reports ETS1 binding intensity results from the supplement of paper PMC10681739.

The full ranking holds about 2,700 sequences; the median of “arbitrary fluorescence units” is about 4,100, and the highest 2% start at about 54,000. The list shows a part of the results.

The test has as its target T1, ETS1 (UniProt P14921).
T1 sequence: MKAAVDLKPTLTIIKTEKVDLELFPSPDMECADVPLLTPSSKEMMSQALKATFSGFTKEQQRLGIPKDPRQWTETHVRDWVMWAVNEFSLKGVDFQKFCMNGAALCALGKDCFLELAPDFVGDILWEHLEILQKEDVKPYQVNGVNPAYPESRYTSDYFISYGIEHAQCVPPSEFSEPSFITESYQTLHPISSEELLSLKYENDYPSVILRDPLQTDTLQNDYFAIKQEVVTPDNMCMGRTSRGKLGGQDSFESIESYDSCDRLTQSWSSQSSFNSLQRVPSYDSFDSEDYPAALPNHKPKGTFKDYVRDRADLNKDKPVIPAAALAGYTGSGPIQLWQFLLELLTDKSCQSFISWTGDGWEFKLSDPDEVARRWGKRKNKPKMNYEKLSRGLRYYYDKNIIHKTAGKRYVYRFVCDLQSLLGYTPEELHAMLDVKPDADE
In words: ETS1 binding intensity (PBM fluorescence) (arbitrary fluorescence units); higher = stronger binding. Conditions: ETS1 concentration 10 nM. The method, then: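 gcPBM on wild-type 36-bp genomic probes with two neighbouring ETS1 sites (4-24 bp apart). Recombinant human ETS1 (10 nM) was detected with anti-ETS1 antibody fluorescence. Values are medians over 3 replicate spots. The probes sit in constant array flanks that are not printed.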
Take GGCTGCCACAGGAAGTACGTCACGGAAGAGGGTGGG: the ETS1 binding intensity amounted to 9870.

As for CTCGTAAGGGAAGTAGAGTTTGTTTTCCGGTAAGCC, the ETS1 binding intensity came to 1320. CCACCCACCACATCCTGTCTCCGGAATCTAGAAGTC yielded an ETS1 binding intensity of 27000.

Sequence TTCATGGCAGGAAACAGAAGTACTTCCTGTGGGAGA returned an ETS1 binding intensity of 11500. Sequence CTTTGACCCCGGAAAAGAGATCTTCCGGGTTCCTCT had an ETS1 binding intensity of 2670. As for CAGCCTCCTTCCGGCCTGGCTCTCCTTCCGCCCGCC, the ETS1 binding intensity is 27500. Sequence CAACATATTCATCCTGGGAGGCAGGAAGGTGATTTC returned an ETS1 binding intensity of 244. Under GGGCGGGAGCGGAAGCTGCGCGCGGAAGCGCCGAGT stands 4280; under GAGTACGTCACTTCCGCAACGCTTCCTTCGCGGGGC, 20800. In turn, GCACAGCCAGCTTCCTTTTTAAGGATATGACATCAA had an ETS1 binding intensity of 3840. Under GCTCTAGTTGGGGAAATGAAACATCCGTATAAGCAA stands 466. Turning to AGCACTTCCTCAATTTCTGGCTCTACAGGATATTTC, the ETS1 binding intensity stood at 16100. Under GCACCCAGCCGGTTTCCTTTTCCTGTGCACACTCTC stands 3810. Take ACTCAGGAAACGGAGAGAAGCCACCACAGGAAACGG: the ETS1 binding intensity stood at 1530. For CGACGCACCGGAAGTTTTGAAATATCCTGTGGGCTT the value was 28900; for CAAGAACCGGAAGCCATGGCCTGACTTCCGGCACCG, 28100.

Regarding TCCGCTTCCTGGAATATTAGCCAGGCAGGATACGCC, the ETS1 binding intensity stood at 8620. Under CAGCAATTTCCTAATTGAATCTCCATTTCCTGTGTT stands 6960; under AAAAAGGATGTGGGTCTGTGGGAGGGCTTCCTGGAA, 700. Under CGGCCTCTTCCGCGAGCCCGCGCGCCGGAAGTGGAA stands 5440. In turn, GGTAAACAGGAAAAGGTGAAACGAGGAAACAAAGTG gave an ETS1 binding intensity of 1710. Turning to TTTAGACTTCCTCACAGGCAGTACGGGAAATAAACA, the ETS1 binding intensity stood at 3420. On to TTTGCTTCCGTGGCCAAAGGCGCTTCATTTCCGGGT, for which the ETS1 binding intensity is 4660. For TAGAGGTTTCCGCTCAGAGCAACCAGGAAGGTGGAA the value was 9960; for TCTTTTGTGGCTTCCTGTAGCAGGATATAGGTTTCC, 13300. TTATCAGGAAATGAAGGCTCAGGGAGGGGAAGTGAG showed an ETS1 binding intensity of 1270.

TGGCACAGCCCCGGAACTCGCTTCCTGCCTCTCCCG gave an ETS1 binding intensity of 5850. On to GCGCGCCCACGCGCTTCCTTCCGCCCTCCGCGCCGG, for which the ETS1 binding intensity was determined as 2690. For AGGAGCCTTCCTGTCATGGTGGGCAGGAAGACATTT the value was 8350. In turn, TAACCGGAAATACGCACGGTTTCACCCGGAAGTGCC had an ETS1 binding intensity of 14200.

For CTCACTTCCTCTTGGCCCCATCACCACTTCCCCAAA, the ETS1 binding intensity was found to be 23500. For TGAGTATCGGAAACATCTACTACAGGATGTTTACCA the value was 466. The sequence AAGGCAGGATGTGTGTAATAACACATTTCCTTGGTC gave an ETS1 binding intensity of 5050. Under TGGGTGGGGGCGGAACTTGGCGGAAGTGCGCGCTAC stands 2260. In turn, GGAGCGGAAGGGCTGTGTGTCAAAAGAAGGAAGCCA had an ETS1 binding intensity of 676. For the sequence GCCGTTTGCATTTCCTGAAACCGGATCTTAGTGTCA, the ETS1 binding intensity worked out at 8220. With ACCAAGAGAGGAAGTAACACTCAGGAAGTGGTCAAC, the ETS1 binding intensity came out at 4920. As to GGCCATGAGAAAGGAAGCTGAGGAAGTAGGAGGGAA, the ETS1 binding intensity stood at 343. Sequence GCTGCCGGAGCATCCGGTGGCAGGAAGCCCAGTCCA showed an ETS1 binding intensity of 37300. Under CACAGCACATTCAGGAAACAGGAAGTAGTCTGATAG stands 7680; under ACTCTCTCAAGAGGAAGCACATCCTGCCATGGGAAC, 8960; under TGAACTTTTAGGAAACACCCACTTCCTGTGAGCTTT, 10100.

For the sequence CGACCATGGGCCCTTCCGCAGGAAGAGGGCAGCGCC, the ETS1 binding intensity was 617. As for AGCTCTTCCTGCCTGCCATTCAATCCAGGAAATGCG, the ETS1 binding intensity worked out at 16000. The sequence CGTAACGGAAGGCTCGCACTCTTGTCTTCCGGTCGC showed an ETS1 binding intensity of 2230. For CGGGAGGAAGTGACGCTCCCAGCCAGCTTCCGGTCC, the ETS1 binding intensity was determined as 12400. Consider AGCTTGAACTTCCCAGGGGTCATTTCCTTTGGCAAG, for which the ETS1 binding intensity is 820. The sequence CGCCACTGAGGAAATGAGGGAGAGGAAGCAGGTGAT returned an ETS1 binding intensity of 520. As to GCGCCTGCGGCTGGAAGGCACTTCCGGCGGAAGTTA, the ETS1 binding intensity was 17800. Take ACAAGGCCGGATGTGTTCTGAGCCGGAAGAGGAGTG: the ETS1 binding intensity amounted to 15900.

AGAAGCGGAAAAGGCCTGAGAGGGTCGGAAGTGGGG showed an ETS1 binding intensity of 1050. Sequence CGCGCACGCAGGAAGGAGCCATTTCCTAGAGATGGG had an ETS1 binding intensity of 1120.

Take GCCGGTCGCCTTCCTGAAAAAGCGGAAAAACTTAAA: the ETS1 binding intensity is 595. For CCCCGCGAGACTTCCCCCGGCGGAAAAGGCCCAGAG the value was 916. The sequence AGAAGACACAGGAAGCCATCTGCTTCCTGGCTGTAT yielded an ETS1 binding intensity of 4010. As to ATCTCTCCTTCCTGTGTCATCAGCTTCCTGACCCTT, the ETS1 binding intensity amounted to 7710.

The sequence ACCCCCTTTCCTGTCTGACCTCTGTTTCCTAGACAG had an ETS1 binding intensity of 13300. The sequence GGAGGCACAGGAAGCCAACAAGAGGAAGCAGGAGCA gave an ETS1 binding intensity of 2810. Turning to AGCAGGAAGCGAGCCCGGCGGCCGCGTTTTCCTGGG, the ETS1 binding intensity was 1030. With TGAAGAGTACTGTTTCCTCAGGAAATTGCCATTTTT, the ETS1 binding intensity worked out at 648.

GCTGCAGAAGGAAACGGGACCCACATCCTGGCCCTG showed an ETS1 binding intensity of 1280.

The sequence CAAGAGAGGAAGTAGAGTGACTCATTTTCCGCCCCA yielded an ETS1 binding intensity of 1690. For CAAGTATTTCCTCATTCTGAACAAAGGATGTCGACA, the ETS1 binding intensity amounted to 3270.
